Out of some 48,000 compounds screened, about 120 (0.25%) were called active. Roughly 4% stayed inconclusive and do not appear here. Calls follow the shape of the dose curve; as a rule, active = well fitted activation curve with a large enough effect; inconclusive = small, poorly fitted or top-dose-only effect, or another doubt; inactive = no such curve, though single readings can be large or run the other way. Some of the results follow.
Test: Primary qHTS for Identification of Small Molecule Activators of Huntingtin-Antisense Promoter Activity; also: nearly all actives have a fitted effect of over 55% in size
Conditions: HEK293 HTT-AS promoter firefly luciferase reporter, 24 h; series mostly up to 57.5 µM; activity change, positive = activation: at the top concentration
Procedure, shortened: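 HEK293 luciferase promoter-reporter cells (2,500/well) plated 24 h, then compounds added at up to 57.5 uM final for 24 h at 37 °C. Firefly luminescence by Dual-Glo, normalized to vehicle (0%) and zero RLU (-100%).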

Activity change, positive = activation, inactive:
COc1ccc(-c2cc(=O)c3c(O)cc(O)cc3o2)cc1O 15.3%, Cc1ccc2c(c1)-c1nc(-c3ccc4c(c3)NC(=O)CO4)cc(-c3ccc(F)cc3)c1CO2 -4.22%, Cc1nc2c(C(=O)NCCc3ccc(Cl)cc3)c[nH]n2c(=O)c1Cc1ccc(Cl)cc1 -22.7%, O=C(CSc1nnc(-c2ccc(O)cc2)o1)c1ccc(Br)cc1 -0.86%, COc1ccccc1C(=O)Nc1c(C(=O)N(C)Cc2ccccc2)sc2nc(C)c(Cl)c(C)c12 -46.7%, Cc1cccc(-c2nc3c(c(SCc4ccccc4Cl)n2)Cc2c(CO)cnc(C)c2O3)c1 -15.2%, COc1cc(Cl)c(C)cc1NC(=O)c1cc2c(Cl)nc3ccc(C)cc3c2s1 -3.7%, CCOc1ccccc1NC(=O)c1c(NC(=O)C(C)Oc2ccc(Cl)cc2)sc2c1CCCCC2 (stereo unspecified) -40.8%, CCNC(=O)c1cnc2c(-c3ccccc3)c(C)nn2c1C -6.12%, CC(C)CC1N=C2c3ccccc3N=C(SCC(=O)NCCc3ccc(Cl)cc3)N2C1=O (stereo unspecified) 9.85%, CNC(=O)CN1C(=O)c2cccnc2Sc2ccccc21 -5.71%, CC(C)CCn1c(=O)c2sccc2n2c(CCCC(=O)NC(C)C)nnc12 -14.5%, COc1ccc(-c2nc3cc(C)ccn3c2NC(=O)c2ccc(C)c(C)c2)cc1 -9.03%, COc1ccc(-n2c(=O)c3c4c(sc3n(Cc3ccccc3Cl)c2=O)CCC4)c(OC)c1 1.48%, COc1cccc(CNC(=O)CN(C)S(=O)(=O)c2ccc3[nH]c4c(c3c2)CCCC4)c1 -20%, Cc1cccc(OCC(=O)Nc2ccccc2OCc2cc(=O)n3ccccc3n2)c1 3.54%, Cc1ccc(Cn2c(SCc3ccc(C(=O)N4CCCCCC4)cc3)nc3ccncc32)cc1 -45.7%, Cc1cccc(NC(=O)c2sc(-n3nc(C)c(Cc4ccc5c(c4)OCO5)c3C)nc2C)c1C -16.8%, COc1ccc(-c2cc(C)no2)cc1S(=O)(=O)NC(C)C -5.23%, COc1cccc(NC(=O)N2CCN3CCCCC3C2)c1 (stereo unspecified) 8.06%, COc1cc(OC)cc(N2C(=O)N(CC(=O)c3ccc(F)cc3)c3ccccc3S2(=O)=O)c1 -10.5%, COc1ccc(CN2CCc3nc(SCC(=O)Nc4cc(C)cc(C)c4)[nH]c(=O)c3C2)cc1 -3.24%, COc1ccc(-c2noc(Cn3c(=O)c4ccccc4n(CC(=O)Nc4cccc(OC)c4)c3=O)n2)cc1 -19.8%, COc1ccc(-c2noc(CSc3nnc(C)n3-c3ccc(OC)cc3)n2)cc1 -23.1%, Cn1nnnc1SCCCNCc1ccccc1OCc1ccccc1Cl -49.6%, Nc1nc(Cl)nc2c1ncn2[C@@H]1O[C@H](CO)[C@@H](O)[C@@H]1F -20.5%, COc1ccccc1NC(=O)c1sc2nc(N3CCOCC3)c3c(c2c1N)CC(C)(C)OC3 -1.08%, Cc1ccc(NC(=O)CSc2ncc3c(n2)-c2ccc(Cl)cc2N(C)S3(=O)=O)cc1F -13.2%, COc1ccc(-c2noc(-c3ccc(N4CCN(C)CC4)c([N+](=O)[O-])c3)n2)cc1OC 25.2%, Cc1ccccc1-c1nnc(CN2CCN(c3ccccn3)CC2)o1 8.58%, Cc1cc(Br)ccc1NC(=O)C1CCN(S(=O)(=O)c2cccc3nsnc23)CC1 -19.8%, COCCCNC(=O)C(=O)Nc1c2c(nn1-c1cccc(Cl)c1)CSC2 -16%, CNC(=O)Cn1cc(S(=O)(=O)Cc2ccccc2F)c2ccccc21 -11.1%, COC(=O)c1c(-c2cccs2)csc1NC(=O)COc1c(C)ccc(C)c1C -17.2%, CCCCCSc1nc2sc3c(c2c(=O)n1-c1ccccc1)CCN(C(C)=O)C3 -50.2%, Cc1nn(C(=O)c2ccccc2F)c(C)c1S(=O)(=O)N1CCCCCC1 -11.8%, COc1ccc(-c2oc3ncn4nc(COc5c(C)cccc5C)nc4c3c2-c2ccc(OC)cc2)cc1 10.1% [at 11.5 µM, percent change from vehicle, -100% = no light], CCOc1ccccc1NC(=O)N1CCc2cc(S(=O)(=O)N3CCC(C)CC3)ccc21 -3.39%, Cc1ccc(N2C(=O)N(CC(=O)C(C)(C)C)c3ccccc3S2(=O)=O)cc1C -37.4%, CCc1cccc(NC(=O)c2cc3c(=O)n(Cc4ccc(OC)cc4)ccc3nc2C)c1 -13.9%, CCOc1ccc(CCNC(=O)c2ccc(Nc3nc4ccccc4n4nnnc34)cc2)cc1OCC -5.25%, CCOc1ccc(-c2cc(C(=O)N3CCN(S(=O)(=O)c4cc(Cl)ccc4OC)CC3)[nH]n2)cc1 -29.3%, Cc1ccc(C)c(N2CCN(C(=O)Cn3ncc4ccsc4c3=O)CC2)c1 -47.4%, CCOC(=O)c1ccc(NC(=O)c2c(N3CCCC3=O)c3cc(OC)ccc3n2C)cc1 -34.6%, Cc1cc2oc(C(=O)N(Cc3ccccc3F)C3CCS(=O)(=O)C3)c(C)c2cc1Cl (stereo unspecified) -21.7%, Cc1c(Cl)cccc1NC(=O)CN1C(=O)COc2ccc(S(=O)(=O)N3CCOCC3)cc21 -13.2%, CC1=C(C(=O)OCC2CCCCC2)C(c2cccc(Cl)c2Cl)CC(=O)N1 (stereo unspecified) -5.37%, Cc1ccc(C2CC(=O)Nc3cc4c(cc32)OCCO4)cc1 (stereo unspecified) -25.7%, CCc1ccc(Cn2c(CNS(=O)(=O)c3ccc(F)c(Cl)c3)nc3cccnc32)cc1 -23.6%, CCOc1ccc(C(=O)c2oc3ccccc3c2NC(=O)Cc2coc3cc(C)cc(C)c23)cc1 -22.5%, CC(=O)N1CCCC1c1nc2ccccc2n1Cc1ccccc1 (stereo unspecified) -3.53%, CCOC(=O)c1ccc(NC(=O)c2oc(=O)c3ccccc3c2-c2ccccc2)cc1 -21%, Cc1cccc(Cn2c(=O)n(CC3CCC(C(=O)N4CCOCC4)CC3)c(=O)c3sccc32)c1 (stereo unspecified) -26.9%, CCCCOC(=O)c1ccc(NC(=O)Cn2nnc3sc4c(c3c2=O)CCCC4)cc1 -32.6%, O=C(NCc1cccs1)c1ccc(Cn2c(SCc3cccc(F)c3)nc3cccnc32)cc1 -33.9%, COc1ccccc1-c1nc2c(c(SCC(=O)Nc3c(C)cc(C)cc3C)n1)Cc1c(CO)cnc(C)c1O2 -7.84%, CCC(=O)N1CCc2cc(S(=O)(=O)CCC(=O)NCc3ccc(C)cc3)ccc21 -11.1%, CCOC(=O)c1c(NC(=O)c2cc3nc(-c4ccc(OC)cc4)cc(C(F)(F)F)n3n2)sc2c1CCC(C)C2 (stereo unspecified) -3.71%, CCc1cccc(NC(=O)C(Cc2ccccc2)NS(=O)(=O)c2ccc3c(c2)oc(=O)n3C)c1 (stereo unspecified) -23.4%, COc1ccc(N2CCN(C(CNC(=O)C(=O)NCCc3ccccc3)c3cccnc3)CC2)cc1 (stereo unspecified) -32.9%, COc1ccc(C)cc1NC(=O)NCc1cccn1Cc1ccccc1 -8.92%, COc1ccccc1NC(=O)CN(C)S(=O)(=O)c1ccc2c(c1)c(=O)n(C)c(=O)n2C -13.3%, Cc1ccc(CN2CCC(CNC(=O)Nc3cccc(Cl)c3C)C2)cc1 (stereo unspecified) -18.3%, Cc1ccc(CCNC(=O)NCc2noc3ccccc23)cc1 -1.84%, COc1ccc(C)cc1NC(=O)CSc1nc2ccccc2nc1N1CCOCC1 -7.39%, CC1CCCN(S(=O)(=O)c2ccc3[nH]c(=O)cc(C(=O)NCCc4ccc(Cl)cc4)c3c2)C1 (stereo unspecified) -9.89%, Cc1c(CNC2CCCCCC2)c(C(=O)O)c(C)n1Cc1ccc(F)cc1Cl -18.4%, CCOCCCN(C(=O)Nc1ccc(Cl)cc1)C1CCN(C(C)=O)CC1 7.77%, O=C(COc1ccc(Cl)cc1)Nc1nnc2n1CCS2 -4.99%, O=C1CN2Cc3c(ccc(Cl)c3Cl)N=C2N1 -21.2%, CC(=O)N1CCc2cc(S(=O)(=O)NC(Cc3ccccc3)C(=O)Nc3cccc(C)c3)ccc21 (stereo unspecified) -16.5%, O=C(Cn1ncc2c([nH]c3ccccc32)c1=O)Nc1cccc(C(F)(F)F)c1 -13%, Oc1c(C(c2ccc(F)cc2)N2CCOCC2)sc2nc(-c3ccco3)nn12 (stereo unspecified) -5.98%, CCc1ccc(-n2c(=O)c3c4c(sc3n(Cc3ccc(C)cc3)c2=O)CCC4)cc1 -16.6%, Cc1ccc(CNCc2ccccc2)s1 -7.65%, Cc1cc(C)cc(N2CC(c3nc(-c4cccc(Cl)c4)no3)CC2=O)c1 (stereo unspecified) -14.7%, COc1ccc(CCNc2nccn(-c3ccc(C)c(C)c3)c2=O)cc1OC -30.4%, Cc1ccccc1CN1c2ccccc2S(=O)(=O)c2ccccc21 -7.71%, O=C1C(Nc2ccccc2)=CC(c2ccc(Br)cc2)N1c1ccccc1 (stereo unspecified) 19.3%, COc1ccc(N2CCN(S(=O)(=O)c3c(C)[nH]c(=O)[nH]c3=O)CC2)cc1 -2.8%, COc1ccc(CCNC(=O)C(=O)Nc2ccc(C)cc2)cc1OC -0.617%, CCN(C(=O)c1cc2cc3ccc(OC)cc3nc2o1)c1cccc(C)c1 -8.69%, Cc1ccc(C)c(NC(=O)CSc2nc(-c3ccccc3)cc(=O)[nH]2)c1 -6.27%, CC(=O)c1ccc(Oc2nc(C)nc3c2oc2ccccc23)cc1 -76.4%, COc1ccc(-c2nc(C(=O)Nc3ccc(C(C)=O)cc3)nn2-c2cccc(Cl)c2)cc1 -24.8%, CC(C)c1ccc(NC(=O)c2ccc(F)c(S(=O)(=O)N3CCCCCC3)c2)cc1 -33.6%, COc1ccc(S(=O)(=O)NCCc2csc3nc(-c4ccc(OC)c(OC)c4)nn23)cc1C -10.5%, O=C1CCSc2ccc(S(=O)(=O)Nc3ccc(Cl)c(C(F)(F)F)c3)cc2N1 -16.3%, CCc1ccccc1NC(=O)c1ccc2c(c1)CCN2S(C)(=O)=O -8.55%, CC(C)(C)c1ccc(C(=O)Nc2cc(-c3nc4ccccc4o3)ccc2Cl)cc1 9.16%, CCCCn1c(=O)c2oc3ccccc3c2n(CC(=O)Nc2cccc(Cl)c2C)c1=O -6.17%, CCc1ccccc1NC(=O)C1CCN(S(=O)(=O)c2ccc3[nH]c(=O)ccc3c2)CC1 -7.76%, Cc1noc(C)c1S(=O)(=O)N1CCC(C(=O)Nc2ccc(Br)cc2)CC1 -27.5%, COc1ccc(Cc2nc3ccc(C(=O)NCc4ccc(OC)cc4OC)cc3o2)cc1 -39.8%, COc1ccc(CNC(=O)c2nc(Cn3nc(C)c(Br)c3C)no2)cc1OC -43.9%, COc1cc(NC(=O)c2sc3nc4n(c(=O)c3c2C)CCCCC4)cc(OC)c1OC -12.9%
